Numbering of substitutions follows the chain as printed; changes in the protein carry UniProt numbers. This is one part of the list.

Sequences and labels used below:
T1: RBFOX1 RRM (Homo sapiens, UniProt Q9NWB1 109-208)
T1 sequence: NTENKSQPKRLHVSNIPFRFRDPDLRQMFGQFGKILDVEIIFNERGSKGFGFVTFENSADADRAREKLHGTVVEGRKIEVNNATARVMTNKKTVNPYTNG

B1: AUUACUG (DNA:RNA)
RNA: GGGAGACCGGAAUUCAGAUUGUCCAUUACUGUUAAAUCCCGUCGUAGCCACCA
DNA 1: CAATCTGAATTCCGGTCTCCC
DNA 2: TGGTGGCTACGACGGGATT
B2: CCCACGG (DNA:RNA)
RNA: B1 RNA with A25C, U26C, U27C, U30G
DNA 1: CAATCTGAATTCCGGTCTCCC
DNA 2: TGGTGGCTACGACGGGATT
B3: CAUAGAG (DNA:RNA)
RNA: B1 RNA with A25C, U26A, C29G, U30A
DNA 1: CAATCTGAATTCCGGTCTCCC
DNA 2: TGGTGGCTACGACGGGATT
B4: UUGUAAU (DNA:RNA)
RNA: B1 RNA with A25U, U27G, A28U, C29A, U30A, G31U
DNA 1: CAATCTGAATTCCGGTCTCCC
DNA 2: TGGTGGCTACGACGGGATT
B5: UCGGCAC (DNA:RNA)
RNA: B1 RNA with A25U, U26C, U27G, A28G, U30A, G31C
DNA 1: CAATCTGAATTCCGGTCTCCC
DNA 2: TGGTGGCTACGACGGGATT
B6: CCAGGAU (DNA:RNA)
RNA: GGGAGACCGGAAUUCAGAUUGUCCCCAGGAUUUAAAUCCCGUCGUAGCCACCA
DNA 1: CAATCTGAATTCCGGTCTCCC
DNA 2: TGGTGGCTACGACGGGATT
B7: GCAGGAC (DNA:RNA)
RNA: B6 RNA with C25G, U31C
DNA 1: CAATCTGAATTCCGGTCTCCC
DNA 2: TGGTGGCTACGACGGGATT
B8: CAACGGU (DNA:RNA)
RNA: B6 RNA with C26A, G28C, A30G
DNA 1: CAATCTGAATTCCGGTCTCCC
DNA 2: TGGTGGCTACGACGGGATT
B9: GCCGGGU (DNA:RNA)
RNA: B6 RNA with C25G, A27C, A30G
DNA 1: CAATCTGAATTCCGGTCTCCC
DNA 2: TGGTGGCTACGACGGGATT
B10: GUGUGUC (DNA:RNA)
RNA: B1 RNA with A25G, U27G, A28U, C29G, G31C
DNA 1: CAATCTGAATTCCGGTCTCCC
DNA 2: TGGTGGCTACGACGGGATT
B11: CGAGCAC (DNA:RNA)
RNA: B6 RNA with C26G, G29C, U31C
DNA 1: CAATCTGAATTCCGGTCTCCC
DNA 2: TGGTGGCTACGACGGGATT
B12: CGUCGAG (DNA:RNA)
RNA: B6 RNA with C26G, A27U, G28C, U31G
DNA 1: CAATCTGAATTCCGGTCTCCC
DNA 2: TGGTGGCTACGACGGGATT
B13: CGACAUC (DNA:RNA)
RNA: B6 RNA with C26G, G28C, G29A, A30U, U31C
DNA 1: CAATCTGAATTCCGGTCTCCC
DNA 2: TGGTGGCTACGACGGGATT
B14: CCAUCAU (DNA:RNA)
RNA: B6 RNA with G28U, G29C
DNA 1: CAATCTGAATTCCGGTCTCCC
DNA 2: TGGTGGCTACGACGGGATT
B15: GUUGAAU (DNA:RNA)
RNA: B6 RNA with C25G, C26U, A27U, G29A
DNA 1: CAATCTGAATTCCGGTCTCCC
DNA 2: TGGTGGCTACGACGGGATT
B16: AACACGG (DNA:RNA)
RNA: B1 RNA with U26A, U27C, U30G
DNA 1: CAATCTGAATTCCGGTCTCCC
DNA 2: TGGTGGCTACGACGGGATT
B17: UUCAUGC (DNA:RNA)
RNA: B1 RNA with A25U, U27C, C29U, U30G, G31C
DNA 1: CAATCTGAATTCCGGTCTCCC
DNA 2: TGGTGGCTACGACGGGATT
B18: GACCCAC (DNA:RNA)
RNA: B1 RNA with A25G, U26A, U27C, A28C, U30A, G31C
DNA 1: CAATCTGAATTCCGGTCTCCC
DNA 2: TGGTGGCTACGACGGGATT
B19: AAGUAGG (DNA:RNA)
RNA: B1 RNA with U26A, U27G, A28U, C29A, U30G
DNA 1: CAATCTGAATTCCGGTCTCCC
DNA 2: TGGTGGCTACGACGGGATT
B20: CGAAAGA (DNA:RNA)
RNA: B6 RNA with C26G, G28A, G29A, A30G, U31A
DNA 1: CAATCTGAATTCCGGTCTCCC
DNA 2: TGGTGGCTACGACGGGATT
B21: UACCAUC (DNA:RNA)
RNA: B1 RNA with A25U, U26A, U27C, A28C, C29A, G31C
DNA 1: CAATCTGAATTCCGGTCTCCC
DNA 2: TGGTGGCTACGACGGGATT
B22: AGUUGGC (DNA:RNA)
RNA: B1 RNA with U26G, A28U, C29G, U30G, G31C
DNA 1: CAATCTGAATTCCGGTCTCCC
DNA 2: TGGTGGCTACGACGGGATT
B23: AUAAGAA (DNA:RNA)
RNA: B1 RNA with U27A, C29G, U30A, G31A
DNA 1: CAATCTGAATTCCGGTCTCCC
DNA 2: TGGTGGCTACGACGGGATT
B24: UUCCCUU (DNA:RNA)
RNA: B1 RNA with A25U, U27C, A28C, G31U
DNA 1: CAATCTGAATTCCGGTCTCCC
DNA 2: TGGTGGCTACGACGGGATT
B25: CUAGUAA (DNA:RNA)
RNA: B6 RNA with C26U, G29U, U31A
DNA 1: CAATCTGAATTCCGGTCTCCC
DNA 2: TGGTGGCTACGACGGGATT
B26: AUAACAG (DNA:RNA)
RNA: B1 RNA with U27A, U30A
DNA 1: CAATCTGAATTCCGGTCTCCC
DNA 2: TGGTGGCTACGACGGGATT
B27: CGGCUCU (DNA:RNA)
RNA: B6 RNA with C26G, A27G, G28C, G29U, A30C
DNA 1: CAATCTGAATTCCGGTCTCCC
DNA 2: TGGTGGCTACGACGGGATT
B28: GCAUACU (DNA:RNA)
RNA: B6 RNA with C25G, G28U, G29A, A30C
DNA 1: CAATCTGAATTCCGGTCTCCC
DNA 2: TGGTGGCTACGACGGGATT
B29: AGAGCGU (DNA:RNA)
RNA: B6 RNA with C25A, C26G, G29C, A30G
DNA 1: CAATCTGAATTCCGGTCTCCC
DNA 2: TGGTGGCTACGACGGGATT
B30: GGCAACA (DNA:RNA)
RNA: B1 RNA with A25G, U26G, U27C, C29A, U30C, G31A
DNA 1: CAATCTGAATTCCGGTCTCCC
DNA 2: TGGTGGCTACGACGGGATT
B31: UCCUUUC (DNA:RNA)
RNA: B1 RNA with A25U, U26C, U27C, A28U, C29U, G31C
DNA 1: CAATCTGAATTCCGGTCTCCC
DNA 2: TGGTGGCTACGACGGGATT

This assay concerns the target T1, RBFOX1 RRM. In words: EMSA; HiTS-Eq, 1 nM pool, 10 min; buffer printed only for the single-RNA assays: 10 mM Tris pH 7.5, 150 mM NaCl, 3.4 mM EDTA, 0.001% NP-40, 30 C. As to conditions: tags: His6 N-terminal (pET28a); label: 5' 32P. The procedure, abridged: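 Purified RbFox RRM (wild type or mutant) was equilibrated for 10 min in 50 µL with 1 nM of a 5′-radiolabelled pool of RNA with 7 randomized nucleotides, its flanks annealed to DNA oligonucleotides, across increasing protein concentrations. Free RNA was separated by 8% native PAGE, excised, reverse-transcribed, PCR-barcoded and sequenced on an Illumina HiSeq 2500. Relative association constants came from read-count changes of each variant against the control reaction, normalised to the cognate motif.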
(A gel shift assay detects complexes by their altered migration in electrophoresis.)
As for B1, the binding signal was 0.0108 KA relative to UGCAUGU.
Regarding B2, the binding signal was 0.00884 KA relative to UGCAUGU.
The figure for B3 is 0.00555 KA relative to UGCAUGU; for B4 it is 0.00855 KA relative to UGCAUGU; for B5 it is 0.0124 KA relative to UGCAUGU.
The figure for B6 is 0.0104 KA relative to UGCAUGU; for B7 it is 0.00817 KA relative to UGCAUGU.
In the case of B8, the binding signal was 0.00523 KA relative to UGCAUGU.
Take B9: the binding signal was 0.0167 KA relative to UGCAUGU.
The value for B10 was 0.0183 KA relative to UGCAUGU.
The value for B11 was 0.0163 KA relative to UGCAUGU.
The value for B12 was 0.0124 KA relative to UGCAUGU.
Turning to B13, the binding signal was 0.00501 KA relative to UGCAUGU.
Regarding B14, the binding signal is 0.00229 KA relative to UGCAUGU.
Consider B15, for which the binding signal was 0.016 KA relative to UGCAUGU.
With B16, the binding signal is 0.00678 KA relative to UGCAUGU.
Consider B17, for which the binding signal is 0.0106 KA relative to UGCAUGU.
In the case of B18, the binding signal is 0.00871 KA relative to UGCAUGU.
In the case of B19, the binding signal is 0.0082 KA relative to UGCAUGU.
Consider B20, for which the binding signal was 0.0066 KA relative to UGCAUGU.
With B21, the binding signal was 0.000341 KA relative to UGCAUGU.
As to B22, the binding signal is 0.0134 KA relative to UGCAUGU.
The value for B23 was 0.0057 KA relative to UGCAUGU.
For the molecule B24, the binding signal is 0.00595 KA relative to UGCAUGU.
On to B25, for which the binding signal is 0.0016 KA relative to UGCAUGU.
As to B26, the binding signal is 0.00271 KA relative to UGCAUGU.
As to B27, the binding signal is 0.0106 KA relative to UGCAUGU.
Consider B28, for which the binding signal was 0.00674 KA relative to UGCAUGU.
On to B29, for which the binding signal was 0.0131 KA relative to UGCAUGU.
The value for B30 was 0.00797 KA relative to UGCAUGU; that for B31 was 0.00863 KA relative to UGCAUGU.

Values taken from publication PMC9911399, “Two distinct binding modes provide the RNA-binding protein RbFox with extraordinary sequence specificity”.
